Experimental data: the supplement of paper PMC3334620
The full ranking holds about 33,000 sequences; the median of “E-score (-0.5 to 0.5)” is about -0.056, and the highest 2% start at about 0.38. The list shows a part of the results.

The sequences below were run against Stb4 (UniProt P50104) (assay: PBM E-score (8-mer binding enrichment) (E-score (-0.5 to 0.5)); higher = stronger / more preferred TF binding; most listed sequences are background and not binding sites). Settings: protein concentration: 200 nM; construct: GST-DNA-binding domain.
Protocol: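 Universal 'all 10-mer' protein binding microarrays (Agilent AMADID 015681) probed with GST-tagged S. cerevisiae TFs (full-length or DBD) made by in vitro transcription/translation (PURExpress), about 100-200 nM. Bound TF was detected with fluorescent anti-GST. Each ungapped 8-mer (which stands for itself and its reverse complement) is scored by the PBM enrichment score (E-score), a modified Wilcoxon-Mann-Whitney statistic from -0.5 to +0.5, computed with the Universal PBM Analysis Suite. Scale: above 0.35 generally sequence-specific binding.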

Row | Sequence | PBM E-score
1 | ATTGTGCC | 0.0107
2 | ATGGTAGG | -0.196
3 | TCCAACGA | -0.254
4 | ACCGAAAC | 0.372
5 | CTAGATTA | -0.0747
6 | CAGTACGA | -0.154
7 | CTTAGGGC | -0.0343
8 | ACGCCGGG | 0.169
9 | AGATCATG | -0.308
10 | ACCCAGCT | -0.0119
11 | AGGTCACC | -0.167
12 | CAATGTAG | -0.0387
13 | GACGTAGA | -0.0865
14 | AGCCAGAG | -0.0497
15 | AATAATAC | 0.0362
16 | CCTGTCTC | -0.0614
17 | AAGTGCAC | -0.0475
18 | GCGACTTA | 0.0574
19 | ACACGCTA | -0.051
20 | CGATAAAG | 0.0416
21 | CTCCGTAC | 0.0911
22 | AGTCATGA | -0.0251
23 | GTGAGTAA | -0.197
24 | GTCCTAAA | -0.132
25 | ACCGGGGG | 0.229

Row | Sequence | PBM E-score
26 | ACGTCGCC | -0.082
27 | ATTAAATC | 0.0847
28 | GTATAATA | 0.132
29 | ATTGATTA | -0.00822
30 | GTGTACAC | -0.283
31 | TACAGGCA | -0.181
32 | CGTGTTAC | -0.0336
33 | AGGGCATA | -0.0963
34 | GACTAGAA | 0.0402
35 | ATCGGCGG | 0.327
36 | CTTGGGTA | 0.0184
37 | ACATCAGC | -0.00689
38 | CGGACCCC | 0.167
39 | CTTCGAAC | -0.00115
40 | GACTCACC | -0.0865
41 | GCCACTCA | -0.167
42 | TATAGGAA | -0.246
43 | CAGTTGTC | -0.199
44 | GTATCAGA | -0.145
45 | GGACTGCA | -0.179
46 | ATGTCAAT | 0.0529
47 | GTCCCCAC | -0.164
48 | GAGTGGTA | -0.163
49 | AGCCTGCG | -0.0648
50 | AATCGAAC | -0.162

Row | Sequence | PBM E-score
51 | AAACTAAT | 0.0849
52 | GTTACAAC | 0.0535
53 | ATCTTCGG | 0.423
54 | ACGTGCCT | -0.15
55 | ATTTGGGA | -0.202
56 | ATCCCATC | -0.104
57 | ATCAAAGA | -0.287
58 | GATTCGGC | 0.393
59 | CCCTAGAG | -0.196
60 | GCCTATCC | 0.13
61 | TAACGACA | -0.19
62 | GTAGCTCA | -0.112
63 | AGTACCCC | -0.0332
64 | AGGATGGA | 0.0445
65 | ATTGCAAT | 0.0191
66 | ATCGACAA | 0.083
67 | AGCATGTC | -0.111
68 | GGATAACA | 0.181
69 | ACGTTCAA | -0.106
70 | ATATTAGG | -0.141
71 | CGCTGTGC | 0.0871
72 | CAACATCC | 0.213
73 | CGACAAGC | -0.0511
74 | CCGGGAGC | 0.278
75 | AGGCTGAG | -0.132

Row | Sequence | PBM E-score
76 | CCAAAGTA | 0.0417
77 | GAAGTTAA | 0.0385
78 | CAAACCAC | -0.176
79 | ACATCAAT | -0.173
80 | AAATACAT | -0.251
81 | ACAACTGC | -0.185
82 | AGGGACCT | -0.215
83 | ATGATCTG | -0.207
84 | CCTGATCG | -0.00686
85 | AAATTGAT | 0.142
86 | ATTTGTGA | -0.0937
87 | TCCTGCCA | -0.213
88 | GAGCTAAA | -0.0964
89 | ACCTCCAA | -0.439
90 | ATGGAAAA | 0.02
91 | ACGGGTCA | 0.0265
92 | AAACCCAG | -0.209
93 | ACATCAAC | 0.0408
94 | CCACCAAG | -0.0994
95 | AATAACAC | 0.0778
96 | GACCAAGC | -0.107
97 | ATCAATGC | -0.0158
98 | AACATCCA | -0.0721
99 | GGACAAAC | -0.162
100 | ATAGCCAG | -0.358

Row | Sequence | PBM E-score
101 | GAAAAGGA | 0.00735
102 | AGAGAGAA | -0.168
103 | AAAAGGCC | -0.167
104 | CTGATGGA | -0.205
105 | CCGGCTGC | 0.272
106 | CAATAAAA | -0.0756
107 | AATCTCTG | -0.17
108 | AAAGCTTT | 0.174
109 | AGTACGGA | 0.194
110 | ACTCAGAC | -0.368
111 | AAAACAGT | 0.0431
112 | ACAGCCCG | 0.135
113 | ATAGTCTC | -0.144
114 | ACGCCTTG | -0.106
115 | AGTCTGAA | -0.24
116 | ACACAGAG | -0.198
117 | CCGTTATA | 0.00967
118 | GATAGCAA | -0.00338
119 | ATGCATTA | 0.0561
120 | AGGACAAT | -0.0514
121 | ACTGAGCC | -0.0323
122 | CTGTAGAA | -0.0631
123 | AGAGGAAA | -0.0307
124 | GAGTCAGA | -0.116
125 | AAAAACGG | 0.171

Row | Sequence | PBM E-score
126 | CCAATTAA | -0.218
127 | AGTGTTAA | -0.107
128 | ACTAACAG | -0.133
129 | AACTCCGA | 0.412
130 | GGTAAAAC | 0.0434
131 | ACAATCCG | 0.276
132 | ATGGAGGA | -0.118
133 | GAGGCCTA | 0.0115
134 | AGGGCGCA | -0.261
135 | CTGAGCGA | -0.092
136 | CACGTATC | -0.154
137 | CAGGGTCA | -0.2
138 | CAGAGAGA | -0.267
139 | AAATCCAA | -0.0495
140 | ATAACTGG | -0.0233
141 | GAAGGAGA | -0.138
142 | CTAGCAAG | -0.344
143 | GGAGAACA | -0.00318
144 | CAAACCTG | -0.205
145 | AGAAATTC | -0.0386
146 | ACCACCAC | -0.125
147 | AGCTAAGG | -0.114
148 | AAATCGCA | -0.11
149 | GCAGATTA | 0.0108
150 | CAGTGCCG | 0.254

Row | Sequence | PBM E-score
151 | CGGGGTAG | 0.187
152 | AATTATTC | 0.152
153 | CAAGGTGG | -0.0134
154 | CACAACGA | 0.0887
155 | CCTTGTGA | -0.0811
156 | CGCTGCCC | 0.0661
157 | CGGTTTCA | 0.127
158 | CAACCTCA | -0.307
159 | CTACTGCC | -0.0454
160 | GCCCTTGA | -0.209
161 | CGGAAGAA | 0.406
162 | TAGATGAA | -0.0575
163 | CCCGCAAC | 0.228
164 | AAAAACTG | -0.151
165 | GAGGCTAA | -0.057
166 | CGGCAGGA | 0.262
167 | CGGTGGCC | 0.114
168 | ACGCTAGT | -0.0234
169 | AAGCTGCA | -0.15
170 | AAGCCTCT | -0.297
171 | AAGGTGAG | -0.0074
172 | CAAATTGA | -0.17
